These are literature values, as cited in patent US6010890A, “Method for viral inactivation and compositions for use in same” (New York Blood Center, Inc., priority 1997, dated 2000).

This series concerns HIV. To be noted: cited from earlier work.

Turning to `CN(C)CCC[Si](C)(C)O[Si]1(O)n2c3c4ccccc4c2N=C2N=C(N=c4c5ccccc5c(n41)=NC1=NC(=N3)c3ccccc31)c1ccccc12` (stereo not shown) [Pc4, hydroxysiloxydimethylpropyl-N-dimethyl silicon phthalocyanine], the “inactivation of HIV in its multiple forms, among phthalocyanines” value is given as “most effective”.
